In PubChem BioAssay AID540267 (National Center for Advancing Translational Sciences (NCATS), 2011):
In all, about 340,000 compounds went through this assay and about 530 (0.16%) were called active. This list was built around the results that the source calls inconclusive (neither active nor inactive); the mix of calls is not that of the screen. Cut-off read from the data, not from the text of the source: active = activity change below about -80%; inconclusive = between about -30% and that limit; inactive = weaker than that.

Experiment: Small Molecules that selectively kill Giardia lamblia: qHTS;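 note: parasites exposed to compound for two days anaerobically before the ATP read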
Conditions: Giardia lamblia trophozoite viability; at 7.66 µM; stronger effect = lower value
In short: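 Killing of trophozoites was scored by loss of ATP luminescence after a 48 hrs anaerobic exposure to compounds at 37 deg C, using 100 cells per well.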
% is set by controls: 0 for no effect and ±100 for the full control effect.

| SMILES | activity change |
| --- | --- |
| CN(C)c1ccc(-c2nc3ccccc3n2C)cc1 | inconclusive: -76.6% [inhibitor] |
| Cc1cc(=O)oc2cc(OCc3ccc(C(=O)N4CCN(c5ccccc5)CC4)cc3)ccc12 | inactive: -13.1% |
| CN1CCN(S(=O)(=O)c2cccc(C(=O)Nc3sc4c(c3-c3nc5ccccc5[nH]3)CCCC4)c2)CC1 | inconclusive: -56.1% [inhibitor] |
| O=C(CNc1ccc(F)cc1F)NC(=O)NCc1ccco1 | inconclusive: -38.2% [inhibitor] |
| O=C1C=C(c2cccc(Cl)c2)C[C@@H](c2ccc(Cl)cc2)C1 | inconclusive: -36.7% [inhibitor] |
| COc1ccc(/C=C/C(=O)N2CCN(c3ccccn3)CC2)cc1 | inactive: -20.2% |
| CN(Cc1cccnc1)C(=O)CNC(=O)c1ccc(Cl)cc1Cl | inconclusive: -38.9% [inhibitor] |
| C/C(=C\c1ccccc1)CN1CCC(C(=O)N2CCC(C)CC2)CC1 | inactive: -3.46% |
| O=C(Cc1ccc(F)cc1)Oc1ccc(C(=S)N2CCCC2)cc1 | inconclusive: -34.7% [inhibitor] |
| Cn1nnnc1Sc1ncnc2scc(-c3ccsc3)c12 | inconclusive: -34% [inhibitor] |
| COc1cccc(CSc2nc3ccncc3[nH]2)c1 | inconclusive: -71.3% [inhibitor] |
| O=C(NCc1ccc(F)cc1)C1CCN(S(=O)(=O)c2ccc(Br)s2)CC1 | inactive: -12% |
| Cc1cccc(NC(=O)N2CCN(Cc3ccc4c(c3)OCO4)CC2)c1C | inconclusive: -46.9% [inhibitor] |
| CC1CCN(c2nc(Cl)nc(Nc3ccc([N+](=O)[O-])cc3)n2)CC1 | inactive: -19.7% |
| CCOC(=O)Cc1csc(SCC(=O)NC2CCCCC2)n1 | inconclusive: -51.2% [inhibitor] |
| CC(=O)c1ccc(NC(=O)C(C)Nc2ccc(Cl)cc2)cc1 (stereo unspecified) | inconclusive: -35.7% [inhibitor] |
| COc1ccc(Cl)cc1NC(=S)N(Cc1cccnc1)Cc1ccco1 | inconclusive: -36.1% [inhibitor] |
| Cc1cc(C2=NNC(=Nc3ccc(S(=O)(=O)N4CCOCC4)cc3)SC2)c(C)n1C | inactive: 4.56% |
| Cc1cccc(OCC(=O)NCC(=O)N/N=C/c2cc(Br)cc(Br)c2O)c1 | inactive: -1.99% |
| O=C(COC(=O)CNC(=O)c1ccc(Cl)c([N+](=O)[O-])c1)NCC1CCCO1 (stereo unspecified) | inconclusive: -35.2% [inhibitor] |
| CCOCCCN(C)C1CCN(C(=O)c2oc3ccccc3c2NC(=O)Cc2ccc([N+](=O)[O-])cc2)CC1 | inconclusive: -33.1% [inhibitor] |
| COc1ccc(OC)c(/C=N/NC(=O)CC2C(=O)NN=C2C)c1 (stereo unspecified) | inconclusive: -35.2% [inhibitor] |
| O=C(N/N=C/c1ccc(OC(=O)c2ccccc2)c([N+](=O)[O-])c1)c1ccc(O)cc1 | inactive: -0.568% |
| CCN(C(=O)COC(=O)c1ccc([N+](=O)[O-])o1)C1CCCCC1 | inconclusive: -44.7% [inhibitor] |
| CC(=O)N1CC(C)Sc2ccc(S(=O)(=O)NCCc3cccc(C)c3)cc21 (stereo unspecified) | inconclusive: -30.2% [inhibitor] |
| COc1cc(NC(=O)NC2Cc3ccccc3C2)cc(OC)c1 | inconclusive: -30.9% [inhibitor] |

| SMILES | activity change |
| --- | --- |
| CC1CCCN(C(c2ccccc2)c2sc3ncnn3c2O)C1 (stereo unspecified) | inconclusive: -32.9% [inhibitor] |
| COCCn1c(SCC(=O)Nc2ccc(OC)cc2OC)nc2ccccc2c1=O | inconclusive: -32.1% [inhibitor] |
| S=c1c2c(nc3nc[nH]n13)CCC2 | inconclusive: -31.6% [inhibitor] |
| CCC1CCCCN1S(=O)(=O)c1ccc([N+](=O)[O-])cc1 (stereo unspecified) | inconclusive: -31.7% [inhibitor] |
| Cc1ccc(S(=O)(=O)N2[C@@H](c3ccc(Cl)cc3)C(C(=O)O)=CC[C@H]2c2cccc(Cl)c2)cc1 | inconclusive: -46.8% [inhibitor] |
| COc1ccc(N2C(=O)CC(Nc3ccc(C(=O)O)cc3)C2=O)cc1OC (stereo unspecified) | inconclusive: -38.9% [inhibitor] |
| C=CCn1c(SCC(=O)Nc2c(C)n(C)n(-c3ccccc3)c2=O)nc2scc(-c3ccccc3)c2c1=O | inactive: 6.64% |
| COc1ccccc1-c1sc2cc3c(cc2c1C#CCO)OCO3 | inconclusive: -32.4% [inhibitor] |
| COc1ccc(C2=CC(=O)N(Nc3ccccc3)C2=O)cc1 | inconclusive: -32.8% [inhibitor] |
| CC1(C(=O)OCC(=O)N2c3ccccc3Sc3ccccc32)CC1(Cl)Cl (stereo unspecified) | inconclusive: -41% [inhibitor] |
| Cc1c(NC(=O)c2cc(-c3ccc(Cl)c(Cl)c3)on2)c(=O)n(-c2ccccc2)n1C | inconclusive: -45.9% [inhibitor] |
| CCOC(=O)C1=C(C)N=C2SC=C(C)N2C1c1ccc(OC)cc1 (stereo unspecified) | inactive: 0.81% |
| S=c1nc[nH]c2c1sc1nc(-c3ccccc3)c3c(c12)CCCC3 | inconclusive: -42.3% [inhibitor] |
| COc1ccc2oc(C(=O)Nc3nccs3)c(C)c2c1 | inconclusive: -47.3% [inhibitor] |
| O=C(CSc1nc2ccccc2c(=O)n1NC(=O)c1ccccc1)c1ccc(Cl)cc1 | inactive: 1.98% |
| Cc1cc(-c2ccc(C(=O)O)s2)cnc1N | inactive: -12.7% |
| Cc1ccc([C@@H]2CC=C(C(=O)O)[C@H](c3ccccc3F)N2S(=O)(=O)c2ccc(C)cc2)cc1 | inconclusive: -43.6% [inhibitor] |
| CC1CC(C)CN(C(C)C(=O)Nc2cc(S(=O)(=O)N3CCCCC3)ccc2Cl)C1 (stereo unspecified) | inactive: 8.13% |
| Cc1nc2c(-c3ccc(F)cc3)cnn2c(N)c1-c1ccccc1 | inconclusive: -41.3% [inhibitor] |
| CN1/C(=C\C=N\NC(=O)c2ccc(O)cc2)C(C)(C)c2ccccc21 | inconclusive: -34.3% [inhibitor] |
| COc1ccc(NS(=O)(=O)c2ccc3oc4ccccc4c3c2)cn1 | inconclusive: -67.9% [inhibitor] |
| Cc1ccc(C(=O)n2c(N)nc3ccccc32)cc1 | active: -81.5% |
| NS(=O)(=O)c1ccc(CCNC(=O)c2ccc(S(=O)(=O)N3CCCCC3)cc2)cc1 | inactive: -12.1% |
| Cn1nnnc1Sc1ncnc2scc(Br)c12 | inactive: -3.68% |
| CC1CCN(C(=O)Cn2nnc(-c3ccccc3)n2)CC1 | inconclusive: -38.3% [inhibitor] |
| N#CCc1ccc(NC(=O)/C=C/c2ccc([N+](=O)[O-])o2)cc1 | inconclusive: -37.4% [inhibitor] |

| SMILES | activity change |
| --- | --- |
| Cn1c(Cc2csc(N)n2)nnc1SCC(=O)NC1CCCCC1 | inconclusive: -33% [inhibitor] |
| CSc1ccccc1OCc1cc(C(=O)N2CCc3c(Cl)cccc3C2)no1 | inactive: -16.8% |
| CCCCOc1ccc(C(=O)Oc2cccnc2)cc1 | inconclusive: -30% [inhibitor] |
| COc1ccc2nc(NC(=S)NC(=O)c3ccco3)sc2c1 | inconclusive: -44.3% [inhibitor] |
| c1ccc(Cn2c(CNc3nc4ccccc4n3CCN3CCCCC3)nc3ccccc32)cc1 | inactive: 19.1% |
| CCC1(CC)C(=O)C2=C3C1[C@H](C(=O)OC)C=C(C(=O)OC)C[C@H]3[C@H]1C(=O)N(CC(=O)OC)C(=O)[C@H]1[C@H]2C (stereo partly specified) | inconclusive: -35.1% [inhibitor] |
| O=[N+]([O-])c1ccccc1CN1CCN(Cc2ccc3ccccc3c2)CC1 | inactive: 5.37% |
| C#CCOCCOCCOCCNc1nc(N2CCN(C(=O)[C@H](CCC(=O)O)n3cc(C(N)CC(C)C)nn3)CC2)nc(N2CCN(C(=O)[C@H](CCC(=O)O)n3cc(C(N)CC(C)C)nn3)CC2)n1 (stereo partly specified) | inconclusive: -35.2% [inhibitor] |
| O=C(NCCN1CCc2ccccc2C1)Nc1ccc(F)cc1 | inconclusive: -34% [inhibitor] |
| CC1CC(C)CN(C(=O)COC(=O)c2cncc(Br)c2)C1 (stereo unspecified) | inconclusive: -40% [inhibitor] |
| Cc1cc(S(=O)(=O)NC2CC(C)(C)NC(C)(C)C2)c(Cl)cc1Cl | inconclusive: -33.9% [inhibitor] |
| COC(C(=O)NNC(=O)CCc1ccccc1)c1ccccc1 (stereo unspecified) | inconclusive: -30.6% [inhibitor] |
| CCc1ccc2nc(NC(=O)CN3C(=O)NC4(CCCC4)C3=O)sc2c1 | inconclusive: -31.9% [inhibitor] |
| O=C(NC1CC1)c1ccc(-c2nc3ccccc3s2)s1 | active: -100% |
| Cc1ccc(NC(=O)c2cc(C)n(-c3ccccc3)c2C)cc1 | inconclusive: -62.9% [inhibitor] |
| COc1ccc(CN2CCN(C(=O)c3ccco3)CC2)cc1OC | inconclusive: -36.3% [inhibitor] |
| COc1ccc(CC(=O)OCC(=O)Nc2cccc(C(C)=O)c2)cc1OC | inactive: 17.6% |
| CN1CCN(c2ccc(NC(=O)N3CCc4ccccc43)cc2)CC1 | inconclusive: -41.9% [inhibitor] |
| Cc1ccccc1C(=O)NNC(=S)NC(=O)c1ccccc1 | inconclusive: -36.2% [inhibitor] |
| O=C(O)CCn1c(=S)n(CCC(=O)O)c2ccccc21 | inactive: -11.1% |
| CCOc1ccc(-c2csc(NC(=O)c3ccc(S(=O)(=O)N4CCc5ccccc5C4)cc3)n2)cc1 | inactive: 17.1% |
| N/C(=N\OC(=O)c1ccc(Cl)cc1Cl)c1ccncc1 | inactive: 3.02% |
| CCOC(=O)c1c(C)n(C)c2cc([N+](=O)[O-])c(O)c([N+](=O)[O-])c12 | inconclusive: -58.4% [inhibitor] |
| COc1cc(NC(=O)c2ccc(C)cc2)c(OC)cc1NC(=O)CN1CCCCC1 | inactive: 8.5% |
